Measurements as given in PubChem BioAssay AID485294 (National Center for Advancing Translational Sciences (NCATS), 2010).
Among all 370,000 compounds or so, about 150 (0.041%) were called active. This list was built around the results that the source calls inconclusive (neither active nor inactive); the mix of calls is not that of the screen. Calls follow the shape of the dose curve; as a rule, active = well fitted inhibition curve with a large enough effect; inconclusive = small, poorly fitted or top-dose-only effect; inactive = flat fitted curve, though single readings scatter. No potency is given beside an inconclusive call; the fits are too rough.

Target: Beta-lactamase (Escherichia coli (strain K12)) (UniProt P00811)
Chain of UniProt P00811 (P00811 whole entry, looked up): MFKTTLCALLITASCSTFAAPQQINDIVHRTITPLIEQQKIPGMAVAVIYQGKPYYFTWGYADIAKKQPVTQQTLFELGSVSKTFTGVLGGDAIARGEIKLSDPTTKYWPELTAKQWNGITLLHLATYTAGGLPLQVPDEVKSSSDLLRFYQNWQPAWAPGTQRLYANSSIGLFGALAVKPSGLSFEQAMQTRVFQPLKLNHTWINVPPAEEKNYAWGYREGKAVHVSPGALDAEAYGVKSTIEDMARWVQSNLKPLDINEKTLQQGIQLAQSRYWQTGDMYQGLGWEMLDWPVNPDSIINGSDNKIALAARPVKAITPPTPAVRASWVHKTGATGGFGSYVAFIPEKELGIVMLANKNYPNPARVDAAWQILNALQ
Test: qHTS Inhibitors of AmpC Beta-Lactamase (assay with detergent); also: nearly all actives have a fitted effect of over 25% in size
Settings: AmpC hydrolysis of nitrocefin, absorbance 480 nm, 0.01% Triton; series mostly up to 114 µM
Outline: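 20 mM phosphate pH 7.0 + 0.01% (detergent screen) or 0.0001% Triton X-100; 5.3 nM AmpC reagent; cpd preinc 15 min RT; nitrocefin (800 uM stock) to start; A480 q20 s × 4 min; Activity was normalised to no-enzyme and no-compound control wells.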
Potency is read from the fitted curve at half-maximal effect; tags tell the direction and shape of the fitted curve.

| Compound | Potency |
| --- | --- |
| COc1ccccc1CNC(=O)COC(=O)[C@H](Cc1c[nH]c2ccccc12)NC(=O)c1cccs1 | inconclusive [inhibitor, full curve, poor fit] |
| COc1ccc(S(=O)(=O)N(Cc2ccccc2)Cc2nc3ccccc3c(=O)[nH]2)cc1 | inactive |
| Cc1ccc(S(=O)(=O)NCC(=O)OCC(=O)N2CCN(C(=O)c3ccco3)CC2)cc1C | inactive |
| O=C(O)c1cc(Cl)c(Cl)cc1C(=O)Nc1cccc2ncccc12 | inconclusive [inhibitor, full curve, poor fit] |
| CCOc1ccc(Oc2nc(NC)nc(N3CCOCC3)n2)nn1 | inactive |
| CC(C)C(=O)Nc1ccc(NC(=O)c2ccccn2)cn1 | inconclusive [inhibitor, partial curve, poor fit] |
| Cc1nc2c(c(C)nn2-c2ccccc2)c(C)c1CCC(=O)NCCc1ccccc1 | inactive |
| O=C(c1sc2ccccc2c1Cl)N(Cc1ccccc1Cl)C1CCS(=O)(=O)C1 (stereo not given) | inconclusive [inhibitor, partial curve, poor fit] |
| O=C(COc1ccc(Cl)cc1)NCCSc1ccccc1 | inconclusive [inhibitor, full curve, poor fit] |
| CCCCn1c(=O)[nH]c(=O)c2c1nc(-c1ccsc1)n2Cc1ccccc1 | inconclusive [inhibitor, single point] |
| CCCCOc1ccc(-c2ncc(C(=O)O)c(C)n2)cc1 | inconclusive [inhibitor, full curve] |
| CC1CCCCC1NC(=O)c1ccco1 (stereo not given) | inactive |
| CCCNC(=O)Cn1cnc2sc(C(=O)Nc3cc(OC)c(OC)c(OC)c3)c(C)c2c1=O | inconclusive [inhibitor, full curve, poor fit] |
| C=CCn1c(SC(F)F)nc2scc(-c3ccco3)c2c1=O | inconclusive [inhibitor, full curve, poor fit] |
| COC(=O)c1sc(S(=O)(=O)N2CC(C)OC(C)C2)c(C(=O)OC)c1C (stereo not given) | inconclusive [inhibitor, full curve] |
| CCCCn1c(=O)n(Cc2cccc(F)c2)c(=O)c2c1ncn2Cc1ccco1 | inconclusive [inhibitor, single point] |
| COc1ccc(NC(=O)N2CCCc3ccccc32)c(OC)c1 | inconclusive [inhibitor, full curve] |
| O=C(c1c[nH]c(C(=O)C(Cl)(Cl)Cl)c1)c1ccccc1Br | inconclusive [inhibitor, partial curve, poor fit] |
| COc1cc(NC(=O)Cc2cccs2)cc(OC)c1 | inactive |
| Cc1cccc(NCC(=O)N/N=C\c2c[nH]c3ccccc23)c1 | inconclusive [inhibitor, single point] |
| O=C(CCN1CCOCC1)Nc1ccc(F)cc1 | inconclusive [inhibitor, full curve, poor fit] |
| CN(C)CCCN(C(=O)c1ccc(Br)s1)c1nc2cc3c(cc2s1)OCO3 | inactive |

| Compound | Potency |
| --- | --- |
| Cc1ccc(S(=O)(=O)N2CCN(C(=O)c3cc4c(s3)CCCC4)CC2)cc1 | inconclusive [inhibitor, full curve, poor fit] |
| COc1cccc(C(=O)Nc2cccc(-c3ccc(N4CCOCC4)nn3)c2)c1OC | inconclusive [inhibitor, full curve, poor fit] |
| CCN(CC)C(=O)CSc1nc2ccccc2c(=O)n1OC | inconclusive [inhibitor, full curve, poor fit] |
| CCn1cc(/C=C(\NC(=O)c2ccc(C)cc2)C(=O)NCCCN2CCOCC2)c2ccccc21 | inconclusive [inhibitor, full curve] |
| CCOC(=O)c1cccc(NC(=O)CSc2nnc(C3CCCCC3)n2C)c1 | inconclusive [inhibitor, single point] |
| CCOC(=O)c1cc(NC(=O)c2ccc(C)cc2)c(=O)n2c1oc1ccc(Cl)cc12 | inactive |
| CC1CCCC(NC(=O)c2ccc3c(c2)OCO3)C1C (stereo not given) | inconclusive [inhibitor, partial curve] |
| COc1ccc(N2CC(NC(=O)c3cc4ccccc4o3)CC2=O)cc1OC (stereo not given) | inactive |
| COc1cc(/C=C(\C#N)C(=O)Nc2ccc(C)cc2)ccc1OCc1cc(=O)n2nc(C)sc2n1 | inactive |
| COc1ccc(S(=O)(=O)Cc2ccc(C(=O)N3CCN(c4cccc(C)c4)C(C)C3)o2)cc1 (stereo not given) | inconclusive [inhibitor, partial curve] |
| COc1ccccc1-c1ccc(SCc2ccc(C)cc2)nn1 | inconclusive [inhibitor, full curve] |
| O=C(Nc1ncc2c(n1)CC(c1ccco1)CC2=O)c1ccc(Cl)cc1 (stereo not given) | inconclusive [inhibitor, full curve, poor fit] |
| Cc1ccc(OCC(=O)Nc2ccc(S(=O)(=O)Nc3cc(C)nc(C)n3)cc2)c(C)c1 | inconclusive [inhibitor, full curve] |
| CCSc1ncc(Cl)c(C(=O)Nc2c(C(=O)c3ccc(C)c(F)c3)oc3ccccc23)n1 | inactive |
| Cc1ccccc1CN1CCN(CC2CC2)CC1CCO (stereo not given) | inconclusive [inhibitor, full curve, poor fit] |
| CN1CCc2c(sc(NC(=O)C3CCCN3S(=O)(=O)c3ccc(Cl)s3)c2C(N)=O)C1 (stereo not given) | inconclusive [inhibitor, full curve, poor fit] |
| COc1ccc(N2CCN(CCCNC(=O)Cn3c(=O)c4cccn4c4ccccc43)CC2)cc1 | inconclusive [inhibitor, full curve, poor fit] |
| CC1(C)CSC(=NCCc2ccccc2)N1 | inconclusive [inhibitor, partial curve] |
| Cc1cccc(C(=O)NC(=S)Nc2ccccc2C(F)(F)F)c1 | inactive |
| COc1ccc(C(=O)N2CCN(C(=O)c3ccco3)CC2)cc1 | inconclusive [inhibitor, full curve, poor fit] |
| CCN1CCN(C(C(=O)NC2CCCC2)c2ccc(Cl)cc2)CC1 (stereo not given) | inactive |
| Cc1ccc(-c2nsc3c(N4CCC(C(N)=O)CC4)ncnc23)cc1 | inconclusive [inhibitor, full curve, poor fit] |

| Compound | Potency |
| --- | --- |
| CNC(=O)NC1CCCc2ccccc21 (stereo not given) | inconclusive [inhibitor, partial curve, poor fit] |
| Cc1cc(/C=N/NC(=O)c2cccc([N+](=O)[O-])c2)c(C)n1-c1ccccc1 | inactive |
| O=C(NCCc1ccc(Cl)cc1)c1ccc(OCC2CCCO2)cc1 (stereo not given) | inconclusive [inhibitor, full curve, poor fit] |
| CC(=O)Nc1ccc(NC(=O)C(C)OC(=O)c2cc(S(=O)(=O)N(C)C)ccc2N2CCCC2)cc1 (stereo not given) | inconclusive [inhibitor, full curve, poor fit] |
| COc1ccccc1OCCCC(=O)Nc1ccc(N2CCOCC2)cc1 | inconclusive [inhibitor, partial curve] |
| CCCN(CCC)CCCNC(=O)c1cc2c(=O)n(C)c3ccccc3c2n1C | inconclusive [inhibitor, single point] |
| CCc1noc(C)c1C(=O)OCC(=O)c1ccccc1OC | inconclusive [inhibitor, full curve] |
| Cc1ccc(-c2noc(CSc3nnc(Cc4ccccc4)n3-c3cccc(C)c3)n2)cc1 | inconclusive [inhibitor, full curve, poor fit] |
| Cc1cc(C)c(NC(=O)Cn2c(=O)n(Cc3ccco3)c(=O)c3ccc(C(=O)NC4CCCC4)cc32)c(C)c1 | inactive |
| Cc1cccc(N2CCN(C(=O)c3cnn(-c4cccc(Cl)c4C)c3C3CCNCC3)CC2)c1C | inactive |
| CCCCNC(=O)Cn1cnc2sc(C(=O)OCC)c(C)c2c1=O | inconclusive [inhibitor, partial curve, poor fit] |
| Cc1onc(-c2ccccc2)c1C(=O)N1CCN(C/C=C/c2ccccc2)CC1 | inconclusive [inhibitor, full curve, poor fit] |
| C=C(Br)Cn1c(CCC)nc2ccccc21 | inconclusive [inhibitor, full curve, poor fit] |
| CC12CS(=O)(=O)CC1SC(=S)N2Cc1ccccc1 (stereo not given) | inconclusive [inhibitor, single point] |
| COc1cc(/C=N/Nc2cc(C)nc(N)n2)ccc1O | inactive |
| CCn1cc(C(=O)NC2CCCCCC2)c(=O)c2ccc(C)nc21 | inconclusive [inhibitor, full curve, poor fit] |
| CCOC(=O)C1CCCN(c2c(Nc3ccc(C)c(C)c3)c(=O)c2=O)C1 (stereo not given) | inconclusive [inhibitor, full curve] |
| COC(=O)c1cccc(Oc2cccc(Cl)n2)c1 | inconclusive [inhibitor, partial curve, poor fit] |
| CCOc1ccc(C(=O)Nc2ccc(S(=O)(=O)N3CCOCC3)cc2)cc1OCC | inconclusive [inhibitor, full curve, poor fit] |
| CC(CCc1ccccc1)NC(=O)c1ccc(NC(=O)c2cccc(Br)c2)cc1 (stereo not given) | inconclusive [inhibitor, partial curve, poor fit] |
| COC(=O)C(C)N=Cc1ccccc1 (stereo not given) | inconclusive [inhibitor, full curve, poor fit] |
